# Experimental data as given in the supplement of paper PMC4967469.
# Lines with a small IC50 respond at low doses; a limit (>, <) means that the fit lies beyond the doses tested. For AUC the same curve is integrated over the 256-fold range of doses and scaled to a fraction; the more sensitive the line, the further below 1. For part of these data: Where the top dose is marked as inferred, it was derived from the fitted curves, not read from the paper.
# Columns and labels:
# Assay in all cases: Viability of human cancer cell lines after 72 h of drug (GDSC screen)
# XL-880 = compound: COc1cc2c(Oc3ccc(NC(=O)C4(C(=O)Nc5ccc(F)cc5)CC4)cc3F)ccnc2cc1OCCCN1CCOCC1 [XL-880]; conditions: top dose 5.12 µM; top dose inferred
# Description: (§1)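 Human cancer cell lines in 384-well plates, medium with 10% serum, drug for 72 h over a 256-fold dose range (nine 2-fold or five 4-fold steps up to the top dose). Adherent lines were fixed and stained with the nucleic acid dye Syto60, suspension lines read with resazurin; signal relative to control wells, capped at 0 and 100%. One two-parameter sigmoid per drug and line, fitted in a mixed model over all curves with the slope shared within a line.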
# JW-7-52-1 = compound: CCC(=O)N1CCN(c2ccc(-n3c(=O)ccc4cnc5ccc(-c6cnc7ccccc7c6)cc5c43)cc2C(F)(F)F)CC1 [JW-7-52-1]; conditions: top dose 1.2 µM; top dose inferred
# Description: as §1
# CI-1040 = compound: O=C(NOCC1CC1)c1ccc(F)c(F)c1Nc1ccc(I)cc1Cl [CI-1040]; conditions: top dose 10 µM; top dose inferred
# Description: as §1
# IPA-3 = compound: Oc1ccc2ccccc2c1SSc1c(O)ccc2ccccc12 [IPA-3]; conditions: top dose 32 µM; top dose inferred
# Description: as §1
# ZG-10 = compound: CN(C)C/C=C/C(=O)Nc1ccc(C(=O)Nc2cccc(Nc3nccc(-c4cccnc4)n3)c2)cc1 [ZG-10]; conditions: top dose 10 µM; top dose inferred
# Description: as §1
# Tubastatin A = compound: CN1CCc2c(c3ccccc3n2Cc2ccc(C(=O)NO)cc2)C1 [Tubastatin A]; conditions: top dose 20 µM
# Description: as §1
# Z-LLNle-CHO = compound: CCCC[C@@H](C=O)NC(=O)[C@H](CC(C)C)NC(=O)[C@H](CC(C)C)NC(=O)OCc1ccccc1 [Z-LLNle-CHO]; conditions: top dose 2.56 µM; top dose inferred
# Description: as §1
# Rapamycin = compound: CO[C@H]1C[C@@H]2CC[C@@H](C)[C@@](O)(O2)C(=O)C(=O)N2CCCC[C@H]2C(=O)O[C@H]([C@H](C)C[C@@H]2CC[C@@H](O)[C@H](OC)C2)CC(=O)[C@H](C)/C=C(\C)[C@@H](O)[C@@H](OC)C(=O)[C@H](C)C[C@H](C)/C=C/C=C/C=C/1C [Rapamycin]; conditions: top dose 0.1 µM; top dose inferred
# Description: as §1
# Temozolomide = compound: Cn1nnc2c(C(N)=O)ncn2c1=O [Temozolomide]; conditions: top dose 30 µM
# Description: as §1
cell line,measurement,setting,value
"MSTO-211H (mesothelioma, adherent)",AUC,XL-880,0.884
same,IC50,XL-880,4620 nM
same,AUC,JW-7-52-1,0.893
same,IC50,JW-7-52-1,1190 nM
same,AUC,CI-1040,0.847
same,IC50,CI-1040,6320 nM
same,AUC,IPA-3,0.982
same,IC50,IPA-3,> 32000 nM
same,AUC,ZG-10,0.935
same,IC50,ZG-10,> 10000 nM
same,AUC,Tubastatin A,0.986
same,IC50,Tubastatin A,> 20000 nM
same,AUC,Z-LLNle-CHO,0.99
same,IC50,Z-LLNle-CHO,> 2560 nM
same,AUC,Rapamycin,0.945
same,IC50,Rapamycin,> 100 nM
"SK-MEL-2 (melanoma, adherent)",AUC,XL-880,0.964
same,IC50,XL-880,> 5120 nM
same,AUC,JW-7-52-1,0.725
same,IC50,JW-7-52-1,335 nM
same,AUC,CI-1040,0.5
same,IC50,CI-1040,624 nM
same,AUC,IPA-3,0.987
same,IC50,IPA-3,> 32000 nM
same,AUC,ZG-10,0.583
same,IC50,ZG-10,1060 nM
same,AUC,Tubastatin A,0.986
same,IC50,Tubastatin A,> 20000 nM
same,AUC,Z-LLNle-CHO,0.916
same,IC50,Z-LLNle-CHO,> 2560 nM
same,AUC,Rapamycin,0.961
same,IC50,Rapamycin,> 100 nM
"D-336MG (glioma, adherent)",AUC,Temozolomide,0.977
same,IC50,Temozolomide,> 30000 nM
same,AUC,XL-880,0.569
same,IC50,XL-880,522 nM
same,AUC,JW-7-52-1,0.729
same,IC50,JW-7-52-1,413 nM
same,AUC,CI-1040,0.869
same,IC50,CI-1040,> 10000 nM
same,AUC,ZG-10,0.682
same,IC50,ZG-10,2350 nM
same,AUC,Tubastatin A,0.951
same,IC50,Tubastatin A,> 20000 nM
same,AUC,Z-LLNle-CHO,0.878
same,IC50,Z-LLNle-CHO,> 2560 nM
same,AUC,Rapamycin,0.977
same,IC50,Rapamycin,> 100 nM
"P30-OHK (lymphoblastic leukaemia, suspension)",AUC,Temozolomide,0.968
same,IC50,Temozolomide,> 30000 nM
same,AUC,XL-880,0.459
same,IC50,XL-880,252 nM
same,AUC,JW-7-52-1,0.925
same,IC50,JW-7-52-1,> 1200 nM
same,AUC,CI-1040,0.991
same,IC50,CI-1040,> 10000 nM
same,AUC,IPA-3,0.732
same,IC50,IPA-3,7980 nM
same,AUC,Tubastatin A,0.551
same,IC50,Tubastatin A,1680 nM
same,AUC,Z-LLNle-CHO,0.945
same,IC50,Z-LLNle-CHO,> 2560 nM
same,AUC,Rapamycin,0.984
same,IC50,Rapamycin,> 100 nM
"REH (B-cell leukaemia, suspension)",AUC,Temozolomide,0.945
same,IC50,Temozolomide,> 30000 nM
same,AUC,XL-880,0.536
same,IC50,XL-880,399 nM
same,AUC,JW-7-52-1,0.819
same,IC50,JW-7-52-1,650 nM
same,AUC,CI-1040,0.964
same,IC50,CI-1040,> 10000 nM
same,AUC,IPA-3,0.585
same,IC50,IPA-3,3390 nM
same,AUC,Tubastatin A,0.838
same,IC50,Tubastatin A,12700 nM
same,AUC,Z-LLNle-CHO,0.914
same,IC50,Z-LLNle-CHO,> 2560 nM
same,AUC,Rapamycin,0.973
same,IC50,Rapamycin,> 100 nM
"EB2 (Burkitt lymphoma, suspension)",AUC,Temozolomide,0.989
same,IC50,Temozolomide,> 30000 nM
same,AUC,XL-880,0.597
same,IC50,XL-880,574 nM
same,AUC,JW-7-52-1,0.954
same,IC50,JW-7-52-1,> 1200 nM
same,AUC,CI-1040,0.969
same,IC50,CI-1040,> 10000 nM
same,AUC,IPA-3,0.627
same,IC50,IPA-3,4320 nM
same,AUC,Tubastatin A,0.886
same,IC50,Tubastatin A,18400 nM
same,AUC,Z-LLNle-CHO,0.938
same,IC50,Z-LLNle-CHO,> 2560 nM
same,AUC,Rapamycin,0.965
same,IC50,Rapamycin,> 100 nM
"MC116 (B-cell lymphoma, suspension)",AUC,Temozolomide,0.999
same,IC50,Temozolomide,> 30000 nM
same,AUC,XL-880,0.707
same,IC50,XL-880,1010 nM
same,AUC,JW-7-52-1,0.326
same,IC50,JW-7-52-1,28.5 nM
same,AUC,CI-1040,0.943
same,IC50,CI-1040,7960 nM
same,AUC,IPA-3,0.988
same,IC50,IPA-3,> 32000 nM
same,AUC,Tubastatin A,0.946
same,IC50,Tubastatin A,16300 nM
same,AUC,Z-LLNle-CHO,0.812
same,IC50,Z-LLNle-CHO,906 nM
same,AUC,Rapamycin,0.151
same,IC50,Rapamycin,0.892 nM
"L-363 (myeloma, suspension)",AUC,Temozolomide,0.983
same,IC50,Temozolomide,> 30000 nM
same,AUC,XL-880,0.845
same,IC50,XL-880,2980 nM
same,AUC,JW-7-52-1,0.15
same,IC50,JW-7-52-1,7.71 nM
same,AUC,CI-1040,0.93
same,IC50,CI-1040,> 10000 nM
same,AUC,IPA-3,0.868
same,IC50,IPA-3,22700 nM
same,AUC,Tubastatin A,0.885
same,IC50,Tubastatin A,16700 nM
same,AUC,Z-LLNle-CHO,0.784
same,IC50,Z-LLNle-CHO,936 nM
same,AUC,Rapamycin,0.772
same,IC50,Rapamycin,33.5 nM
"HC-1 (hairy cell leukaemia, suspension)",AUC,Temozolomide,0.835
same,IC50,Temozolomide,18600 nM
same,AUC,XL-880,0.732
same,IC50,XL-880,1420 nM
same,AUC,JW-7-52-1,0.26
same,IC50,JW-7-52-1,16 nM
same,AUC,CI-1040,0.933
same,IC50,CI-1040,> 10000 nM
same,AUC,IPA-3,0.716
same,IC50,IPA-3,7960 nM
same,AUC,Tubastatin A,0.878
same,IC50,Tubastatin A,18900 nM
same,AUC,Z-LLNle-CHO,0.769
same,IC50,Z-LLNle-CHO,931 nM
same,AUC,Rapamycin,0.811
same,IC50,Rapamycin,50.7 nM
"A3-KAW (B-cell lymphoma, suspension)",AUC,Temozolomide,0.988
same,IC50,Temozolomide,> 30000 nM
same,AUC,XL-880,0.627
same,IC50,XL-880,663 nM
same,AUC,JW-7-52-1,0.484
same,IC50,JW-7-52-1,68.3 nM
same,AUC,CI-1040,0.964
same,IC50,CI-1040,> 10000 nM
same,AUC,IPA-3,0.97
same,IC50,IPA-3,> 32000 nM
same,AUC,Tubastatin A,0.854
same,IC50,Tubastatin A,11000 nM
same,AUC,Z-LLNle-CHO,0.745
same,IC50,Z-LLNle-CHO,671 nM
same,AUC,Rapamycin,0.348
same,IC50,Rapamycin,2.6 nM
"CP66-MEL (melanoma, adherent)",AUC,Temozolomide,0.983
same,IC50,Temozolomide,> 30000 nM
same,AUC,XL-880,0.854
same,IC50,XL-880,4980 nM
same,AUC,JW-7-52-1,0.652
same,IC50,JW-7-52-1,210 nM
same,AUC,CI-1040,0.38
same,IC50,CI-1040,278 nM
same,AUC,IPA-3,0.947
same,IC50,IPA-3,> 32000 nM
same,AUC,Tubastatin A,0.985
same,IC50,Tubastatin A,> 20000 nM
same,AUC,Z-LLNle-CHO,0.72
same,IC50,Z-LLNle-CHO,742 nM
same,AUC,Rapamycin,0.981
same,IC50,Rapamycin,> 100 nM
"NCI-H2135 (non-small cell lung carcinoma, adherent)",AUC,Temozolomide,0.989
same,IC50,Temozolomide,> 30000 nM
same,AUC,XL-880,0.674
same,IC50,XL-880,961 nM
same,AUC,JW-7-52-1,0.679
same,IC50,JW-7-52-1,233 nM
same,AUC,CI-1040,0.991
same,IC50,CI-1040,> 10000 nM
same,AUC,IPA-3,0.795
same,IC50,IPA-3,14400 nM
same,AUC,Tubastatin A,0.901
same,IC50,Tubastatin A,> 20000 nM
same,AUC,Z-LLNle-CHO,0.89
same,IC50,Z-LLNle-CHO,> 2560 nM
same,AUC,Rapamycin,0.981
same,IC50,Rapamycin,> 100 nM
"EW-13 (Ewing sarcoma, suspension)",AUC,Temozolomide,0.975
same,IC50,Temozolomide,> 30000 nM
same,AUC,XL-880,0.594
same,IC50,XL-880,598 nM
same,AUC,JW-7-52-1,0.919
same,IC50,JW-7-52-1,> 1200 nM
same,AUC,CI-1040,0.975
same,IC50,CI-1040,> 10000 nM
same,AUC,IPA-3,0.654
same,IC50,IPA-3,5620 nM
same,AUC,Tubastatin A,0.891
same,IC50,Tubastatin A,> 20000 nM
same,AUC,Z-LLNle-CHO,0.967
same,IC50,Z-LLNle-CHO,> 2560 nM
same,AUC,Rapamycin,0.964
same,IC50,Rapamycin,> 100 nM
"ES3 (Ewing sarcoma, adherent)",AUC,Temozolomide,0.977
same,IC50,Temozolomide,> 30000 nM
same,AUC,XL-880,0.678
same,IC50,XL-880,1040 nM
same,AUC,JW-7-52-1,0.92
same,IC50,JW-7-52-1,> 1200 nM
same,AUC,IPA-3,0.738
same,IC50,IPA-3,9960 nM
same,AUC,ZG-10,0.638
same,IC50,ZG-10,1540 nM
same,AUC,Tubastatin A,0.977
same,IC50,Tubastatin A,> 20000 nM
same,AUC,Z-LLNle-CHO,0.968
same,IC50,Z-LLNle-CHO,> 2560 nM
same,AUC,Rapamycin,0.981
same,IC50,Rapamycin,> 100 nM
"NB69 (neuroblastoma, adherent)",AUC,XL-880,0.425
same,IC50,XL-880,204 nM
same,AUC,JW-7-52-1,0.694
same,IC50,JW-7-52-1,244 nM
same,AUC,CI-1040,0.642
same,IC50,CI-1040,1460 nM
same,AUC,IPA-3,0.674
same,IC50,IPA-3,5730 nM
same,AUC,ZG-10,0.681
same,IC50,ZG-10,1880 nM
same,AUC,Tubastatin A,0.953
same,IC50,Tubastatin A,> 20000 nM
same,AUC,Z-LLNle-CHO,0.834
same,IC50,Z-LLNle-CHO,1410 nM
same,AUC,Rapamycin,0.916
same,IC50,Rapamycin,> 100 nM
"YT (lymphoid neoplasm, suspension)",AUC,Temozolomide,0.984
same,IC50,Temozolomide,> 30000 nM
same,AUC,XL-880,0.606
same,IC50,XL-880,598 nM
same,AUC,JW-7-52-1,0.992
same,IC50,JW-7-52-1,> 1200 nM
same,AUC,CI-1040,0.682
same,AUC,IPA-3,0.467
same,IC50,IPA-3,1650 nM
same,AUC,Tubastatin A,0.851
same,IC50,Tubastatin A,11900 nM
same,AUC,Z-LLNle-CHO,0.96
same,IC50,Z-LLNle-CHO,> 2560 nM
same,AUC,Rapamycin,0.99
same,IC50,Rapamycin,> 100 nM
